The text below walks through data of the supplement of paper PMC5919970.

Molecules are shown by their SMILES. Where a name gives a salt, the structure may show the parent alone. Over roughly 2,000 compounds, “fractional viability relative to vehicle” has its median near 0.92; the lowest 2% begin near 0.11. The list shows a part of the results.

The subject of the assay is TYKNU. The assay is described as follows: fractional viability relative to vehicle; TYKNU is a high-grade serous ovarian cancer line; higher = less growth inhibition. The settings on record: 72 h, genotype: OPA1 knockout (sgOPA1 #2). In outline:
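TYKNU control cells or lentiCRISPRv2 knockout derivatives were seeded at 500 cells per well into drug-stamped 384-well plates holding a ~2100-compound library at 2 or 10 μM, in duplicate. Cells were grown at 37 °C in 5% CO2 in RPMI 1640 with 10% FBS, and drug treatment lasted 72 h. Viability was read by Cell Titer Glo luminescence. Duplicate treatment wells were averaged and normalised to duplicate control wells from the same plate position.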

Regarding `Nc1ccn([C@H]2CC[C@@H](CO)O2)c(=O)n1` [Zalcitabine], the fractional viability was 1.22 (2uM) and 0.908 (10uM).

With `CNC(=O)c1cc(Oc2ccc(NC(=O)Nc3cc(C(C)(C)C)nn3-c3ccc4ncccc4c3)c(F)c2)ccn1` [DCC-2036 (Rebastinib)], the fractional viability is 1.15 (2uM) and 0.406 (10uM).

For the compound `OC[C@H]1O[C@H](O[C@]2(CCl)O[C@H](CCl)[C@@H](O)[C@@H]2O)[C@H](O)[C@@H](O)[C@H]1Cl` [Sucralose], the fractional viability was found to be 0.873 (2uM) and 0.764 (10uM).

For the compound `CC(C)C[C@H](NC(=O)[C@@H](NC(=O)c1cccc(-c2ccccc2)n1)[C@@H](C)O)B(O)O`, the fractional viability is, setting by setting: (2uM) 0.52; (10uM) 0.306.

For `COc1ccc2c(c1)c(CC(=O)O)c(C)n2C(=O)c1ccc(Cl)cc1` [Indomethacin], the fractional viability was determined as 1.03 (2uM) and 0.965 (10uM).

With `CN1CCC(=C2c3ccccc3CCc3cccnc32)CC1` [Azatadine dimaleate], the fractional viability runs as follows: (2uM) 0.476; (10uM) 0.356.

For `Nc1nc2ccc(OC(F)(F)F)cc2s1` [Riluzole], the fractional viability stood at 1.2 (2uM) and 1.02 (10uM).

Regarding `C[C@]1(O)C[C@@H](c2nc(-c3ccc4ccc(-c5ccccc5)nc4c3)c3c(N)nccn32)C1` [OSI-906 (Linsitinib)], the fractional viability runs as follows: (2uM) 1.06; (10uM) 0.889.

Regarding `O=C(C1CCCCC1)N1CC(=O)N2CCc3ccccc3C2C1` (configuration not stated) [Praziquantel], the fractional viability was 0.948 (2uM) and 0.799 (10uM).

For the compound `C[C@@H]1CCO[C@H]2Cn3cc(C(=O)NCc4ccc(F)cc4F)c(=O)c(O)c3C(=O)N12`, the fractional viability turned out to be 0.952 (2uM) and 0.964 (10uM).

For the compound `O=C(O)c1cc(/N=N/c2ccc(O)c(C(=O)O)c2)ccc1O` [Olsalazine Sodium], the fractional viability was 1.16 (2uM) and 0.888 (10uM).

`O=C(Nc1ccccc1-c1cn2c(CN3CCNCC3)csc2n1)c1cnc2ccccc2n1` registered a fractional viability (2uM) of 1.19 and a fractional viability (10uM) of 0.0331.

In the case of `CC(C)(C)NCC(O)COc1cccc2c1CCC(=O)N2` (configuration not stated) [Carteolol HCl], the fractional viability by setting is: (2uM) 0.973; (10uM) 0.93.

For the compound `CNC(=O)c1cc(Oc2ccc(NC(=O)Nc3ccc(Cl)c(C(F)(F)F)c3)c(F)c2)ccn1` [Regorafenib (BAY 73-4506)], the fractional viability is 0.986 (2uM) and 0.64 (10uM).

In the case of `CN(C)CC(=O)Nc1ccc2[nH]c(=O)c3ccccc3c2c1`, the fractional viability (2uM) came to 0.837 and the fractional viability (10uM) is 0.964.

Consider `Cc1ccccc1C(=O)Nc1ccc(C(=O)N2CCCC(O)c3cc(Cl)ccc32)c(C)c1` (configuration not stated) [Tolvaptan], for which the fractional viability came out at 1.13 (2uM) and 0.983 (10uM).

Regarding `CN(C)C(=O)C(CCN1CCC(O)(c2ccc(Cl)cc2)CC1)(c1ccccc1)c1ccccc1` [Loperamide HCl], the fractional viability reads like this: (2uM) 0.929; (10uM) 0.61.

Consider `CC(C(=O)O)c1ccc2c(c1)[nH]c1ccc(Cl)cc12` (configuration not stated) [Carprofen], for which the fractional viability is, setting by setting: (2uM) 0.864; (10uM) 0.992.

As to `CC(NC(=O)C(Cc1ccccc1)NC(=O)OCc1ccccc1)C(=O)CF` (configuration not stated), the fractional viability amounted to 0.845 (2uM) and 0.801 (10uM).

As to `C=CCc1cccc(/C=N/NC(=O)CN2CCN(Cc3ccccc3)CC2)c1O`, the fractional viability turned out to be 0.866 (2uM) and 0.713 (10uM).

With `O=C1c2c(O)cccc2C([C@@H]2O[C@H](CO)[C@@H](O)[C@H](O)[C@H]2O)c2cc(CO)cc(O)c21` (some centres not stated) [Aloin], the fractional viability amounted to 0.905 (2uM) and 0.843 (10uM).

For `O=C(Nc1cccc(C(F)(F)F)c1)Nc1cc(S(=O)(=O)NC2CC2)ccc1-c1ccsc1`, the fractional viability by setting is: (2uM) 0.918; (10uM) 0.969.

In the case of `C[C@H]1O[C@@H](O[C@H]2[C@@H](O)C[C@H](O[C@H]3[C@@H](O)C[C@H](O[C@H]4CC[C@@]5(C)[C@H](CC[C@@H]6[C@@H]5C[C@@H](O)[C@]5(C)[C@@H](C7=CC(=O)OC7)CC[C@]65O)C4)O[C@@H]3C)O[C@@H]2C)C[C@H](O)[C@@H]1O` [Digoxin], the fractional viability (2uM) is 0.141 and the fractional viability (10uM) stood at 0.0738.

On to `Cc1c(OCC(F)(F)F)ccnc1C[S@@+]([O-])c1nc2ccccc2[nH]1` [Dexlansoprazole], for which the fractional viability reads like this: (2uM) 1; (10uM) 1.05.

`CC[C@H]1OC(=O)[C@H](C)[C@@H](O[C@H]2C[C@@](C)(OC)[C@@H](O)[C@H](C)O2)[C@H](C)[C@@H](O[C@@H]2O[C@H](C)C[C@H](N(C)C)[C@H]2O)[C@](C)(O)C[C@@H](C)C(=O)[C@H](C)[C@H]2OC(=O)O[C@@]21C` [Erythromycin Cyclocarbonate]: the fractional viability was 0.834 (2uM) and 0.883 (10uM).

`NC(=O)c1cn(Cc2c(F)cccc2F)nn1` [Rufinamide] returned a fractional viability (2uM) of 1.29 and a fractional viability (10uM) of 1.15.

For `Cc1cc(O)c2c(c1)C(=O)c1cccc(O)c1C2=O` [Chrysophanic Acid], the fractional viability by setting is: (2uM) 0.922; (10uM) 0.952.

`CC(C(=O)O)c1ccc(-c2ccccc2)c(F)c1` (configuration not stated) [Flurbiprofen]: the fractional viability is, setting by setting: (2uM) 1.16; (10uM) 1.06.

In turn, `CN1[C@@H]2CC[C@H]1C[C@@H](OC(=O)c1c[nH]c3ccccc13)C2` [Tropisetron] displayed a fractional viability (2uM) of 1.12 and a fractional viability (10uM) of 1.02.

In the case of `Cc1cccc(C)c1OCC(C)N` (configuration not stated) [Mexiletine HCl], the fractional viability was found to be 0.885 (2uM) and 0.881 (10uM).

Regarding `Nc1nc(CC(=O)Nc2ccc(CCNC[C@H](O)c3ccccc3)cc2)cs1` [Mirabegron], the fractional viability reads like this: (2uM) 1.01; (10uM) 0.924.

As for `CC[C@]1(O)C[C@H]2CN(CCc3c([nH]c4ccccc34)[C@@](C(=O)OC)(c3cc4c(cc3OC)N(C=O)[C@H]3[C@@](O)(C(=O)OC)[C@H](OC(C)=O)[C@]5(CC)C=CCN6CC[C@]43[C@@H]65)C2)C1` [Vincristine sulfate], the fractional viability turned out to be 0.579 (2uM) and 0.343 (10uM).

`COc1ccccc1OCC(O)CO` (configuration not stated) [Guaifenesin] gave a fractional viability (2uM) of 1.1 and a fractional viability (10uM) of 0.949.

Take `Cc1cc(=O)[nH]c(=S)[nH]1` [Methylthiouracil]: the fractional viability by setting is: (2uM) 1.07; (10uM) 1.08.

For the compound `CC(=O)[C@H]1CC[C@H]2[C@@H]3C=CC4=CC(=O)CC[C@@]4(C)[C@@H]3CC[C@]12C` [Dydrogesterone], the fractional viability runs as follows: (2uM) 0.914; (10uM) 1.01.

As to `O=S(=O)(NCCSSCCNS(=O)(=O)c1cc(Cl)ccc1Cl)c1cc(Cl)ccc1Cl`, the fractional viability reads like this: (2uM) 0.809; (10uM) 0.491.

`Cc1cc(/C=C/C#N)cc(C)c1Nc1ccnc(Nc2ccc(C#N)cc2)n1` [Rilpivirine]: the fractional viability is 0.943 (2uM) and 0.608 (10uM).

For the compound `CCOc1cc2ncc(C#N)c(Nc3ccc(F)c(Cl)c3)c2cc1NC(=O)/C=C/CN(C)C` [Pelitinib (EKB-569)], the fractional viability reads like this: (2uM) 0.856; (10uM) 0.14.

As to `Cc1c(N(C)C)c(=O)n(-c2ccccc2)n1C` [Amidopyrine], the fractional viability runs as follows: (2uM) 0.876; (10uM) 0.967.

Take `CCN(CC)CCNC(=O)c1c(C)[nH]c(/C=C2\C(=O)Nc3ccc(F)cc32)c1C` [Sunitinib Malate]: the fractional viability was 0.862 (2uM) and 0.5 (10uM).

Regarding `CCN(CC)CCNC(=O)c1c(C)[nH]c(/C=C2\C(=O)Nc3ccc(F)cc32)c1C` [Sunitinib], the fractional viability turned out to be 0.713 (2uM) and 0.148 (10uM).
